# Measured values taken from PubChem BioAssay AID686978 (National Center for Advancing Translational Sciences (NCATS), 2013).
# Out of some 420,000 compounds screened, about 64,000 (15%) were called active. Inconclusive results, whose numbers are uncertain, are shown with a selection of clear calls. Calls follow the shape of the dose curve; as a rule, active = well fitted inhibition curve with a large enough effect; inconclusive = small, poorly fitted or top-dose-only effect; inactive = flat fitted curve, though single readings scatter. No potency is given beside an inconclusive call; the fits are too rough.
# Experiment: qHTS for Inhibitors of human tyrosyl-DNA phosphodiesterase 1 (TDP1): qHTS in cells in absence of CPT; also: nearly all actives have a fitted effect of over 55% in size
# Settings: DT40 Tdp1-/- hTDP1 cells, no CPT, ATP luminescence, 48 h; activity change, negative = growth inhibition: at 46.2 µM (top of the series) unless noted
# Summary of the method: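 Stably hTDP1-transfected Tdp1-null chicken DT40 cells were treated with library compounds minus camptothecin and grown for at least 48 hr at 37 °C, after which cellular ATP was quantified by luminescence.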
# % is scaled to controls: 0 for no effect and ±100 for the full control effect; potency is read from the fitted curve at half-maximal effect; tags tell the direction and shape of the fitted curve.
SMILES,Potency,"activity change, negative = growth inhibition"
Cc1nc2c(OCc3ccc(Cl)cc3Cl)cccn2c1N(C)CC1CC1,active: 16.4 µM,–
CC(CCc1ccccc1)NC(=O)Cn1ncc2c3ccccc3n(Cc3ccc(F)cc3)c2c1=O (stereo not given),"inconclusive [inhibitor, partial curve]",–
COC(=O)[C@@H]1C[C@H]2CC[C@H](O)C[C@H]2N1Cc1ccc(-c2ccccc2)cc1,"inconclusive [inhibitor, single point]",–
NC1=NC(=O)/C(=C\c2ccc(-c3ccccc3[N+](=O)[O-])o2)S1,"inconclusive [inhibitor, single point]",–
O=C(Nc1cccc(S(=O)(=O)N2CCCCC2)c1)c1c2c(nc3ccccc13)CCN(Cc1ccccc1)C2,active: 18.4 µM,–
CC(C)c1ccc(S(=O)(=O)c2nnn3c2nc(NCCc2ccccc2)c2sccc23)cc1,"inconclusive [inhibitor, single point]",–
S=c1[nH]nc(C23CC4CC(CC(C4)C2)C3)n1Cc1ccco1,"inconclusive [inhibitor, single point]",–
O=c1oc(CCCO)cc2ccc(C#CC3(O)CCCCC3)cc12,active: 18.4 µM,–
O=S(=O)(c1ccc2c(c1)OCCO2)N1CCC(n2nnc3cc(F)ccc32)CC1,–,inconclusive: -31.4% [inhibitor]
O=C(CSc1nnnn1-c1ccccc1)Nc1nsc(-c2ccc(Cl)cc2)n1,"inconclusive [inhibitor, partial curve]",–
Oc1c(Br)cc(Br)cc1CNc1nccs1,inactive,–
O=C(CC1CCCC1)N1CCN(S(=O)(=O)c2ccccc2)CC1,inactive,–
O=C(NC1CCCc2c1cnn2-c1ccc(F)cc1F)c1csnn1 (stereo not given),"inconclusive [inhibitor, partial curve]",–
COCCC(=O)N1CCc2ccc(NC(=O)c3ccc(C(F)(F)F)cc3)cc2C1,"inconclusive [inhibitor, partial curve]",–
C/C(=N\Nc1ccc(S(N)(=O)=O)cc1[N+](=O)[O-])c1ccco1,"inconclusive [inhibitor, single point]",–
CCOC(=O)[C@H]1[C@H]2COc3cc(OC)ccc3[C@@H]2N2C(=O)c3c(C)cc(C)cc3NC(=O)[C@@]12C,"inconclusive [inhibitor, single point]",–
CN(c1ccccc1)c1nc2ccsc2c(=O)s1,inactive,–
COc1ccccc1Cn1c(CO)nc2ccccc21,"inconclusive [inhibitor, single point]",–
CCN(CC(=O)Nc1c(F)cccc1F)C(=O)CCN1C(=O)c2cccc([N+](=O)[O-])c2C1=O,inactive,–
COCC(=O)Oc1c(Sc2ccc(C)cc2)c(C)nn1C(C)(C)C,inactive,–
COc1cc(-c2ccno2)ccc1S(=O)(=O)N1CCN(c2cc(C)ccc2C)CC1,"inconclusive [inhibitor, single point]",–
COC(=O)C1=CN(Cc2ccc(OC)cc2)C=C(C(=O)OC)C1c1cccs1,"inconclusive [inhibitor, single point]",–
O=C(Cc1c(Cl)cccc1Cl)NC1CC1,–,inconclusive: -23.8% [inhibitor]

SMILES,Potency,"activity change, negative = growth inhibition"
COc1cc(O)ccc1CN1CCc2nnc(C(C)NC(=O)c3cc(F)ccc3F)n2CC1 (stereo not given),inactive,–
O=P(c1cccs1)(c1cccs1)c1cccs1,inactive,–
Cc1cc(C)cc(Oc2nc3c(C)cccn3c(=O)c2/C=C(\C#N)c2nc3ccccc3[nH]2)c1,inactive,–
COc1ccc(CN2CCNC(=O)C2CC(=O)NCc2csc(C(C)C)n2)c(OC)c1 (stereo not given),"inconclusive [inhibitor, single point]",–
COc1cccc(N2CC(NC(=O)C(c3ccccc3)c3ccccc3)CC2=O)c1 (stereo not given),"inconclusive [inhibitor, single point]",–
COc1ccc(OCCCC(=O)Nc2cc(Cl)ccc2-n2cncn2)cc1,inactive,–
O=C(c1ccc(CSc2ccccc2)cc1)N1CCN(c2ccccc2)CC1,"inconclusive [inhibitor, single point]",–
CCCn1c(SCN2C(=O)c3ccccc3C2=O)nc2cc(Cl)ccc2c1=O,active: 23.1 µM,–
CC(C)N(CCc1ccncc1)C(=S)Nc1cccc(Cl)c1,inactive,–
c1cnc2cc3c(cc2n1)C1CNCC3C1,"inconclusive [inhibitor, single point]",–
CC1Cc2ccccc2C(CCc2ccccc2)=N1 (stereo not given),"inconclusive [inhibitor, single point]",–
O=C1c2ccccc2C(=O)N1c1cccc(N2C(=O)c3ccccc3C2=O)n1,inactive,–
Cn1nc(N)c2ncc(C(Cl)(Cl)Cl)nc21,"inconclusive [inhibitor, partial curve]",–
Cn1cc(C(=O)NCCc2ccccc2)c(=O)c2cc(S(=O)(=O)N3CCOCC3)ccc21,"inconclusive [inhibitor, single point]",–
Cc1ccc(S(=O)(=O)N2CC3(O)CN(C(=O)OC(C)C)N(C(=O)OC(C)C)CC3(OC(=O)NCc3ccccc3F)C2)cc1 (stereo not given),"inconclusive [inhibitor, single point]",–
C/C(=C\C(=O)Nc1nccs1)c1ccccc1,inactive,–
CN(CCCNC(=O)C1CCC(CNS(=O)(=O)c2ccccc2)CC1)Cc1ccccc1 (stereo not given),"inconclusive [inhibitor, single point]",–
O=C(CSc1ccc(F)cc1)Nc1ccc(N2CCOCC2)c(Cl)c1,"inconclusive [inhibitor, single point]",–
COc1ccccc1NC(=O)c1oc2ccccc2c1NC(=O)c1cc(OC)c(OC)c(OC)c1,"inconclusive [inhibitor, full curve, poor fit]",–
O=C(O)CCCN(Cc1cccc(Br)c1)S(=O)(=O)c1ccc(Br)cc1,inactive,–
NC(=S)NN=C1CCCCCCCCC1,"inconclusive [inhibitor, single point]",–
COC(=O)c1ccc(/C=N/n2c(C)nc3ccccc3c2=O)cc1,–,inconclusive: -31.3% [inhibitor]
